# Experimental data: patent US10799597B2, “Subcutaneous administration of antibody-drug conjugates for cancer therapy” (Immunomedics, Inc., priority 2017, dated 2020)
# B1: hA20-CL2A-SN-38: nontargeting anti-CD20 control ADC (conjugate, chains of the INN, looked up)
# heavy: QVQLQQSGAEVKKPGSSVKVSCKASGYTFTSYNMHWVKQAPGQGLEWIGAIYPGMGDTSYNQKFKGKATLTADESTNTAYMELSSLRSEDTAFYYCARSTYYGGDWYFDVWGQGTTVTVSSASTKGPSVFPLAPSSKSTSGGTAALGCLVKDYFPEPVTVSWNSGALTSGVHTFPAVLQSSGLYSLSSVVTVPSSSLGTQTYICNVNHKPSNTKVDKRV[sequence of human IgG1 Fc omitted]
# light: DIQLTQSPSSLSASVGDRVTMTCRASSSVSYIHWFQQKPGKAPKPWIYATSNLASGVPVRFSGSGSGTDYTFTISSLQPEDIATYYCQQWTSNPPTFGGGTKLEIKRTVAAPSVFIFPPSDEQLKSGTASVVCLLNNFYPREAKVQWKVDNALQSGNSQESVTEQDSKDSTYSLSSTLTLSKADYEKHKVYACEVTHQGLSSPVTKSFNRGEC
# modifications: CL2A-SN-38 payload
# Tests used:
# [1] = test system: Capan-1 pancreatic adenocarcinoma xenografts; test: Therapy of Capan-1 tumor xenografts in nude mice; format: in vivo, athymic nude mice; conditions: day 140; 0.2 mg/kg SN-38 twice weekly×4 weeks
# Method: FIG. 3C. […] Animals were treated twice weekly for 4 weeks as indicated by the arrows. Capan-1 mice (N=10) were treated with 0.2 mg/kg ADC and tumors measured weekly.
# FIG. 4C. […] Capan-1 (N=10) were treated twice weekly for 4 weeks with the agents indicated.
# [2] = test system: SK-MES-1 human squamous cell lung tumors; test: Therapy of SK-MES-1 tumor xenografts in nude mice; conditions: hA20 ADC equal dose; irinotecan at MTD (q2dx5)
molecule,measurement,setting,value
B1,mice tumor-free at the end of the study,[1],20%
same,antitumor effect relative to the specific conjugate,[2],provided the same antitumor effects as the specific hRS7-SN-38 conjugate
